Measurements reported in PMC4336329 (PLoS ONE, 2015).
Out of some 310,000 compounds screened, about 14,000 (4.5%) showed an effect of 50% or more. The effect is printed as a negative number. The list shows a part of the results.

Each compound was assayed against human ether-à-go-go-related gene (hERG) potassium channel (human, UniProt Q12809) (assay: primary screen, population patch clamp on CHO cells stably expressing hERG).
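Note: peak tail current of the secondary pulse compared with the same well before compound.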

Chain of human ether-à-go-go-related gene (hERG) potassium channel (Q12809 whole entry, looked up): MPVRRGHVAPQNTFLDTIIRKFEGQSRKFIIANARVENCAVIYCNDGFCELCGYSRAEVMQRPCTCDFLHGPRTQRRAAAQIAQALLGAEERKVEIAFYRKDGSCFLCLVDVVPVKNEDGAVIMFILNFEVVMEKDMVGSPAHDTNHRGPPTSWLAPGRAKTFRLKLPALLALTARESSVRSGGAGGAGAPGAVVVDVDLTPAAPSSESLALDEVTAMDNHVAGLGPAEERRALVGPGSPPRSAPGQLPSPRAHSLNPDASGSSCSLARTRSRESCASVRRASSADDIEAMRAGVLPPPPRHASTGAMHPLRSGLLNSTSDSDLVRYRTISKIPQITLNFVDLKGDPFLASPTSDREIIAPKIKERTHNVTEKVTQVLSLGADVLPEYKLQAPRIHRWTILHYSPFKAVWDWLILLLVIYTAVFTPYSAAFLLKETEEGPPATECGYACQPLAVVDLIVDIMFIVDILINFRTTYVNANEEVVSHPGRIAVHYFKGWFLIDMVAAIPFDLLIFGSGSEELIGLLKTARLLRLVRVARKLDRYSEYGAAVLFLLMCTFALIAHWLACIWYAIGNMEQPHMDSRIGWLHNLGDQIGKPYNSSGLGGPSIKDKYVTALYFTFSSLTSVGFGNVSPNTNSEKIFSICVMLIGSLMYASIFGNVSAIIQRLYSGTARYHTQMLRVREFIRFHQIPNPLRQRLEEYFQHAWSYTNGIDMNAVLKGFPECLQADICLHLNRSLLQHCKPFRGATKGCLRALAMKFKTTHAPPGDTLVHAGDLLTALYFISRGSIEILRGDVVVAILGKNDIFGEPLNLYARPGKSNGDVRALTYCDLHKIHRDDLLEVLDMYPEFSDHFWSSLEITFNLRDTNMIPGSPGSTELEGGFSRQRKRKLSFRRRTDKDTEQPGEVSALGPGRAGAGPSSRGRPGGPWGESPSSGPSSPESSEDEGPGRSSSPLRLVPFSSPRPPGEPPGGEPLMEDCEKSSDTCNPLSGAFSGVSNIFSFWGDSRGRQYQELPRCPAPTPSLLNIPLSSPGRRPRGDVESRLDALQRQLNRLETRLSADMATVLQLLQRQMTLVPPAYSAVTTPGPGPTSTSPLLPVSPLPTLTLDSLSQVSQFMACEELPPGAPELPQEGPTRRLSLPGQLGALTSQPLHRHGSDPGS

SMILES	hERG current change (%, negative = inhibition) at 10uM [%]
COC(=O)c1sc2nc(SCC(=O)N(C)c3ccccc3)n(N)c(=O)c2c1C	27.4
Cc1cccc(N2C(=O)CC(Sc3nc(C)cc(C)n3)C2=O)c1 (stereo not shown)	13.5
COc1ccc(CC(=O)Nc2cccc(/C(C)=N/NC(=O)c3cccc([N+](=O)[O-])c3)c2)cc1	-13.2
COc1ccc(NC(=O)C(C)SCc2ccccc2)cc1OC (stereo not shown)	-1.56
COc1ccc(C(=O)NNC(=O)c2ccc3ccccc3c2O)cc1	19.6
O=C(NC(=S)NCCN1CCOCC1)c1ccccc1	-8.04
COc1cc2ncc(S(=O)(=O)c3ccccc3)c(N3CCCC(C)C3)c2cc1OC (stereo not shown)	-7.67
CN(c1ccccc1)S(=O)(=O)c1cccc(NC(=O)CC(C)(C)C)c1	-11.4
COc1ccc2oc(C(=O)NCCc3ccccc3)c(C)c2c1	3.17
Cc1cccc(N2CCN(Cc3nc(-c4cccc(Cl)c4)oc3C)CC2)n1	-21
CS(=O)(=O)N(CC(=O)N1CCN(Cc2ccccc2)CC1)C1CCCCC1	-14.1
CN(c1ccccc1)c1nc(N)c([N+](=O)[O-])c(Nc2ccccc2)n1	21.4
CCCNC(=O)c1ccc2c(=O)c(O)c(-c3cccc(Br)c3)[nH]c2c1	-13.8
CO/C=C/C#CC1(O)CCN(C)CC1	5.64
O=c1[nH]c2ccc(Br)cc2c(-c2ccccc2)c1N1CCOCC1	7.5
COCC(C)NC(=O)c1ccc2c(c1)S(=O)(=O)c1ccccc1C2=O (stereo not shown)	3.96
COc1ccc(C(=O)NNC(=O)C(=O)/C=C(\O)c2ccc(C)cc2)cc1	-8.76
CC(C)(C)OC(=O)NCCc1nnc(SCc2c(Cl)cccc2Cl)o1	-8.33
CCc1cc2c(SCC(=O)N(CC)c3c(N)n(Cc4ccccc4)c(=O)[nH]c3=O)ncnc2s1	8.96
CCCOc1ccc(C(=O)NC(=S)Nc2nc3ccccc3s2)cc1	8.53
Cn1c(=O)cc(OCCCC(=O)N2CCCCC2)c2ccccc21	3.44
COc1ccc(OCC(=O)NCCNC(=O)c2ccccn2)cc1	11.6

SMILES	hERG current change (%, negative = inhibition) at 10uM [%]
CC(C)(CO)CNC(=O)CCc1nnc(-c2ccc(-c3ccccc3)cc2)o1	10.9
CNC(=S)N/N=C/c1c(C(=O)OC)cnn1-c1ccc(F)cc1F	6.3
Cc1nn(C(C)(C)C)c(NC(=O)c2ccccc2)c1C#N	14.7
COc1ccc(N2CCN(C(=S)Nc3cc(C)ccc3C)CC2)cc1	11.6
O=S(=O)(c1ccccc1)C(/C=N\O)/C=C/c1ccccc1 (stereo not shown)	4.57
CCOC(=O)Cn1c(=O)c2c(nc3n2CCCN3Cc2ccccc2)n(C)c1=O	-44.9
O=C(N/N=C/C=C/c1ccc([N+](=O)[O-])cc1)c1cccs1	-13
Cc1nc2sccn2c(=O)c1S(=O)(=O)NCc1ccccc1Cl	-13.5
O=[N+]([O-])c1ccc(S(=O)(=O)NCCN2CCOCC2)cc1	11.2
COc1ccc(-n2cc(CNC3CCOCC3)c(-c3cccc(F)c3)n2)cc1	-48.2
N#Cc1ccc(NC(=O)c2sc3cc(C(F)(F)F)cnc3c2-c2cccs2)cc1	-17.4
O=C(N/N=C/c1ccc(N2CCOCC2)cc1)c1ccccc1OCCOc1ccccc1	-28.9
COc1ccc(-c2[nH]c3ccccc3c2SCCNC(=O)c2ccccc2)cc1	2.71
CN1CCN(C(CNC(=O)Nc2ccc(Cl)cc2)c2ccc(F)cc2)CC1 (stereo not shown)	-56.3
COCCNC(=O)c1c[nH]c2ccc(S(=O)(=O)Nc3ccccc3F)cc2c1=O	24.3
N#Cc1cc(C(=O)Cc2ccccc2)c[nH]1	12.9
COc1ccc(NC(=O)COC(=O)CCOc2ccccc2C)cc1Cl	-14.4
Nc1nnc(SCC(=O)c2ccc3c(c2)NC(=O)CO3)s1	23.4
CCN(CC(=O)Nc1ccccc1SC)Cc1nc2ccccc2c(=O)[nH]1	-23.9
CCCC(=O)Nc1ccc2c(c1)nc(CCNC(=O)c1ccco1)n2C	7.48
CS(=O)(=O)Nc1nc2n(n1)C(c1ccc(F)cc1)CC(c1ccccc1)N2 (stereo not shown)	-4.13
CCC(C)c1ccc(Nc2ncccc2C#N)cc1 (stereo not shown)	-6.52

SMILES	hERG current change (%, negative = inhibition) at 10uM [%]
Cc1cccn2c(=O)c3cc(C(=O)NC4CCS(=O)(=O)C4)sc3nc12 (stereo not shown)	5.89
CCN1C(=O)/C(=C\N2CCOCC2)SC1=S	5.62
COC(=O)c1sc(NC(=O)c2ccncc2)nc1C	25.5
O=C(Nc1cc(C(F)(F)F)ccc1-n1cncn1)c1ccc(-c2ccccc2)cc1	7.64
Cc1cc(C)n2nc(SCc3nnc(SCCCCl)o3)nc2n1	2.31
COc1ccc(S(=O)(=O)N(C)CC(=O)NCCN2CCOCC2)cc1	14.7
COc1ccc(C2CC(c3ccccc3)=NN2C(=O)COC(=O)c2cccc(S(=O)(=O)N(C)C)c2)cc1 (stereo not shown)	-11
CNC(=O)c1[nH]cnc1C(=O)NCC(=O)OCc1ccccc1	13.9
CC(C)(C)c1ccc(CN(Cc2ccccc2)C(c2ccccn2)c2nnnn2C(C)(C)C)cc1 (stereo not shown)	2.44
CC(C)(C)C1=NN=C2c3ccccc3C(=O)C21 (stereo not shown)	14.8
Cc1ccc(OCC(=O)Nc2cc(NC(=O)COc3ccc(C)c(C)c3)cc(C(=O)O)c2)cc1C	21.2
CSC1=C(C#N)C(=O)NC(c2ccc(Cl)cc2)S1 (stereo not shown)	4.35
O=C(CSc1nnc(NC(=O)C2CCC2)s1)Nc1ccccc1Br	-18
CCOc1ccc(S(=O)(=O)NCCCN2CCCC2=O)cc1	13.1
COCCN(CCOC)S(=O)(=O)c1ccc(C(=O)Nc2nc(-c3ccncc3)cs2)cc1	-5.97
O=C(CCl)NCCNC(=O)c1cc(OCC(F)(F)F)ccc1OCC(F)(F)F	-4.65
CCOC(=O)C(NC(=O)CC)(Nc1ccc(S(=O)(=O)Nc2onc(C)c2C)cc1)C(F)(F)F (stereo not shown)	7.89
CCc1cc(CC)c(/C=N/NC(N)=O)c(CC)c1/C=N/NC(N)=O	9.25
CCOc1ccc(/C=C2/SC(=S)N(n3c(C)ccc3C)C2=O)cc1	8.78
CC(NC(=O)Nc1nnc(C(F)(F)F)s1)(C(F)(F)F)C(F)(F)F	-7.61
S=c1[nH]c2cc(Br)cnc2[nH]1	26.7
COc1ccc(Nc2ncc(C(=O)N3CCN(c4ccccc4OC)CC3)c3ccccc23)cc1	-4.57

SMILES	hERG current change (%, negative = inhibition) at 10uM [%]
COc1ccc2ccc(OCC(=O)Nc3cc(C)on3)cc2c1	4.4
CCOCc1[nH]c(=S)[nH]c(=O)c1Cc1ccc(OC(C)C)cc1	-58.8
O=C(O)c1nn(-c2cccc(C(F)(F)F)c2)ccc1=O	21.5
O=C(c1ccc(Cl)s1)N1CCOCC1	13.4
CC(C)CN1CCN(Cc2cccc3nccnc23)CC1CCO (stereo not shown)	-8.4
C=CCn1c(SCCCc2ccccc2)nc2c1c(=O)[nH]c(=O)n2C	-26.1
Br.O=C(CN1CCSC1=NCc1ccccc1)c1ccccc1	-23.5
Cc1ccc2nc(SCC(=O)NCCc3ccccc3)nc(=O)n2c1	8.42
CCCn1nc(C(=O)NNC(=O)CSC(C)C(=O)Nc2cc(C)on2)c2ccccc2c1=O (stereo not shown)	-2.53
Cc1cc(OC(C)C(=O)NCC(O)c2ccccc2)c2c(C)c(C)c(=O)oc2c1 (stereo not shown)	7.2
CN1CCN(C(=O)c2cc3c(C(F)(F)F)nn(C)c3s2)CC1	6.05
CC(C)CNC(=O)Nc1ccccc1F	21.3
COC(CN(C)C(=O)c1ccc2c(c1)NC(=O)c1ccccc1S2)OC	4.3
CCC1CCc2c(sc(NC(=O)CSc3nc(-c4ccco4)cc(C(F)(F)F)n3)c2C#N)C1 (stereo not shown)	18.4
FC(F)(F)c1cnc(COc2cc(Cl)cc(Cl)c2)c(Cl)c1	22.7
Cc1ccc(NC(C)C(=O)N/N=C/c2ccc([N+](=O)[O-])s2)cc1 (stereo not shown)	8.3
Cn1c(=O)c2c(ncn2CC(=O)N2CCOCC2)n(C)c1=O	-8.32
COc1c(C)cc(C(=O)C2CCCN(C(=O)c3csc(C)n3)C2)cc1C (stereo not shown)	-1.93
C=CCn1c(SCC(=O)Nc2ccc3c(c2)OCO3)nnc1-c1cc(Br)ccc1O	-22.3
CCCCCC(=O)Nc1cccc(C2=NOC3(C2)C[C@@H](C(N)=O)N(C(=O)c2ccc(OC)cc2)C3)c1 (stereo partly shown)	-6.6
CCc1ccc(NC(=O)Cn2nnc(C(=O)NCc3ccc(OC)cc3)c2N)cc1	8.05
Cc1cc2c(NC(=O)Nc3ccc(C(C)(C)C)cc3)cccc2nn1	24.8
